In all, about 48,000 compounds went through this assay and about 550 (1.1%) were called active. Roughly 4% stayed inconclusive and do not appear here. No stated cut-off is given here; in the data, active means potency below about 15 µM; inconclusive means mostly about 16 µM to 33 µM; inactive means weaker than that. Some of the results follow.
Potency means the concentration at half of the fitted maximal effect.

The test addresses Lysosomal acid glucosylceramidase (Homo sapiens) (UniProt P04062). Nature of the test: Glucocerebrosidase.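 Further: the screen sought inhibitors.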 To be noted: purified enzyme, resorufin glucoside fluorescence (screen aimed at inhibitors), 20 min. The procedure, abridged: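 Compounds titrated against 0.2 nM normal enzyme, 30 uM resorufin beta-D-glucopyranoside substrate, citrate/phosphate buffer with taurocholate and tween-20, pH 5.9. Reaction ran 20 min at room temperature; fluorescence (Ex 548/Em 600) gave AC50.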
Sequence of UniProt P04062 (P04062 whole entry, looked up): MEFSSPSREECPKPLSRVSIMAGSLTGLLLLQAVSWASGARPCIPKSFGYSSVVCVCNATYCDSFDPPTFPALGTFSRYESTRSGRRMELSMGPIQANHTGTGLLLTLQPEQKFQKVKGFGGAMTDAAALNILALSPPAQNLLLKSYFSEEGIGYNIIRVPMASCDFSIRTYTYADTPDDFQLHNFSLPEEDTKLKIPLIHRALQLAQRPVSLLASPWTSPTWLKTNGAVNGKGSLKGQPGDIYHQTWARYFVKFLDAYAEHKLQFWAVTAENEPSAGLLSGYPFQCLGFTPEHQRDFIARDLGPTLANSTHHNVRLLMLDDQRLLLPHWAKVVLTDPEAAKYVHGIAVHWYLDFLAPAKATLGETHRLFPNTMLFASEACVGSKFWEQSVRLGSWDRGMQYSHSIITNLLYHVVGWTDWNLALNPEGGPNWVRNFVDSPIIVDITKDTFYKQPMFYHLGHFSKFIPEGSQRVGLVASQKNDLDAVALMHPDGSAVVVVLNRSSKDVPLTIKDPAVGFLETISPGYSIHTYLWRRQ
With `Cc1cc(C)c(O)c(-c2cc(C(=O)Nc3ccc(S(=O)(=O)N4CCOCC4)cc3)[nH]n2)c1`, the Potency was inactive: > 76.9 µM.

With `Cc1cc(C)nc(/N=C2/NC(=O)CS2)n1`, the Potency was inactive: > 76.9 µM. For `CC(C)(C)C(=O)Cn1c[n+](N)cn1`, the Potency is inactive: > 76.9 µM. Take `Nc1nc(SCC(=O)NCc2ccco2)[nH]c(=O)c1-c1ccccc1`: the Potency was inactive: > 76.9 µM.

In the case of `CCCCn1c(SCC(=O)O)nc2ccccc21`, the Potency is inactive: > 76.9 µM. To `Cc1ccc2c(c1)N(CC(=O)NCCc1c[nH]c3ccccc13)C(=O)CO2` belongs inactive: > 76.9 µM; to `CCOC(=O)NC(=O)CSc1nnnn1-c1ccc(C)cc1`, inactive: > 76.9 µM; to `CCOC(=O)C1=C(CS(=O)(=O)c2ccccc2)NC(=O)NC1c1ccccc1` (centres undefined), inactive: > 76.9 µM.

`Fc1ccc(-c2nn3c(C4COc5ccccc5O4)nnc3s2)cc1` (centres undefined): the Potency is inactive: > 76.9 µM. The same measure for `CC1(C)OC(=O)CC1C(=O)NCc1ccccc1` (centres undefined): inactive: > 76.9 µM; for `Cc1noc(C)c1S(=O)(=O)Nc1ccc(C(=O)O)cc1`: inactive: > 76.9 µM; for `Cc1onc(-c2ccccc2Cl)c1C(=O)Nc1cc(=O)n(C)c(=O)n1C`: inactive: > 76.9 µM. Consider `Cc1ccsc1/C=N/n1cnc2sc(C)c(C)c2c1=O`, for which the Potency was inactive: > 76.9 µM.

For the molecule `O=C(CCn1c(=O)c2ccccc2n(Cc2cccnc2)c1=O)NCc1ccc2c(c1)OCO2`, the Potency is inactive: > 76.9 µM.

As for `O=c1c2ccc(-c3nnc4n3-c3ccccc3SC4)cc2nc2n1CCCCC2`, the Potency is inactive: > 76.9 µM. For the molecule `CCOc1ccc2[nH]c(=O)c(CN(Cc3ccc(C)cc3)C(=O)N3CCCC3)cc2c1`, the Potency entry is “inactive”. To `O=C1CN(C(=O)c2cnccn2)c2ccccc2N1` belongs inactive: > 76.9 µM; to `O=C(CCc1nc2ccccc2[nH]1)Nc1ccc(F)cc1`, inactive: > 76.9 µM. Consider `Cn1c(C(C#N)C(=O)c2sc3ccccc3c2Cl)nc2ccccc21` (centres undefined), for which the Potency is inactive: > 76.9 µM. Regarding `Cc1cccc2cc(C(c3nnnn3Cc3ccccc3)N3CCN(C)CC3)c(=O)[nH]c12` (centres undefined), the Potency was inactive: > 76.9 µM. With `CCCc1c(O)nc(SCCN(CCC)CCC)[nH]c1=O`, the Potency was inactive: > 76.9 µM. With `O=C(O)CCC(=O)Nc1nc(-c2ccccc2)cs1`, the Potency was inactive: > 76.9 µM. To `COc1ccc(C(=O)N(Cc2ccco2)C(C(=O)NC2CCCC2)c2ccc(O)cc2)cc1OC` (centres undefined) belongs inactive: > 76.9 µM. Regarding `Cc1ccc(Cl)cc1N1CCN(C(c2ccc(C#N)cc2)c2nnnn2C2CCCC2)CC1` (centres undefined), the Potency is inactive: > 15.4 µM. `Cc1cnc(NC(=O)CSc2nnc(-c3cccs3)n2C)s1`: the Potency was inactive: > 76.9 µM. `Cc1ccc(Cl)cc1N1CCN(C(=O)C2CCN(S(=O)(=O)c3cccnc3)CC2)CC1`: the Potency is inactive: > 76.9 µM. For `CCCCCCn1c(CN2CCCCC2C)nc2c1c(=O)n(C)c(=O)n2C` (centres undefined), the Potency was inactive: > 76.9 µM.

For the molecule `Cc1csc(NC(=O)CSc2nnc3ncccn23)n1`, the Potency is inactive: > 76.9 µM. Regarding `COc1ccccc1S(=O)(=O)Cc1ccc(C(=O)NCCN2CCCC2)o1`, the Potency was inactive: > 76.9 µM. In the case of `Cc1cc(C(=O)OCC(=O)N2CC(C)CC(C)C2)c(C)o1` (centres undefined), the Potency is inactive: > 76.9 µM. `COc1ccc(C(=O)NCC2OCCc3ccccc32)c(O)c1` (centres undefined): the Potency was inactive: > 76.9 µM. Turning to `CC(=O)N(C)c1ccc(OCC(O)COc2ccc(N(C)C(C)=O)cc2)cc1`, the Potency is inactive: > 76.9 µM. For the molecule `CC(NC(=O)C1C(=O)N(CCO)C2(C)CC1c1ccccc1O2)c1ccccc1` (centres undefined), the Potency is inactive: > 76.9 µM. `CCc1nnc(NC(=O)C2CCC2)s1`: the Potency was inactive: > 76.9 µM.

With `CC(C)N1C(=O)C2C(C(=O)NCc3ccccc3)C3C=CC2(O3)C1C(=O)NC(C)(C)C` (centres undefined), the Potency was inactive: > 76.9 µM.

Take `CC1CCN(C(=O)c2ccc(COc3ccccc3Cl)o2)CC1`: the Potency was inactive: > 76.9 µM.

With `COC(=O)CNc1nc(-c2ccncc2)nc2ccccc12`, the Potency is inactive: > 76.9 µM. For `Cc1cc(C(=O)COc2ncnc3sccc23)c(C)n1C1CC1`, the Potency was inactive: > 76.9 µM.

On to `COc1ccc(-c2noc(-c3ccccc3-c3ccccc3)n2)cc1OC`, for which the Potency was inactive: > 76.9 µM. `Cc1ccc2nc(-c3ccccn3)oc2c1`: the Potency was inactive: > 76.9 µM. On to `CCOC(=O)Cc1csc(SCC(=O)c2c(N)n(CC(C)C)c(=O)n(C)c2=O)n1`, for which the Potency was inactive: > 76.9 µM.

As to `O=C(NCc1ccncc1)C12CC3CC(CC(C3)C1)C2`, the Potency is inactive: > 76.9 µM. With `Cc1ccnc2nc(C(=O)OCCOc3cccc(Br)c3)nn12`, the Potency was inactive: > 76.9 µM.

`Nc1nnc(C(=O)c2ccccc2N)s1`: the Potency is inactive: > 76.9 µM.

Take `C=COCCNC(=O)C1CC(=O)N(c2ccc(C)cc2)C1` (centres undefined): the Potency is inactive: > 76.9 µM. As for `CCSc1nnc(-c2ccc(S(=O)(=O)N3CCOCC3)cc2)n1CC1CCCO1` (centres undefined), the Potency was inactive: > 76.9 µM. Consider `COCc1[nH]nc2c1C1(CCC3(CC1)OCCO3)C(C#N)=C(N)O2`, for which the Potency was inactive: > 76.9 µM. `N=c1nc(SCCC(=O)O)ss1`: the Potency was inactive: > 76.9 µM. For `Cc1nnc(SCC(=O)Nc2ncc(Cc3ccc(F)cc3)s2)n1N`, the Potency is inactive: > 76.9 µM. Take `CCCCNC(=O)OC1CCS(=O)(=O)C1` (centres undefined): the Potency was inactive: > 76.9 µM. The same measure for `CN(C)c1ccc(NC(=O)CN2C(=O)CC(c3ccccc3)=Nc3ccccc32)cc1`: inactive: > 76.9 µM; for `CN(C(=O)C1CCOC1)c1nnc(-c2cccnc2)s1` (centres undefined): inactive: > 76.9 µM. To `CN(C)Cc1nc2c(c(=O)[nH]1)C1(CCCCC1)Cc1ccccc1-2` belongs “inactive”; to `CCOCCc1nnc(NC(=O)c2cc(OC)c(OC)c(OC)c2)s1`, inactive: > 76.9 µM; to `CCOC(=O)CNC(=O)Cn1cnc2sc(C)c(S(=O)(=O)N3CCC(C)CC3)c2c1=O`, inactive: > 76.9 µM. The same measure for `CC(=O)Nc1ccc(S(=O)(=O)N2C3CCCC2CC(NC(=O)C2CCCCC2)C3)cc1` (centres undefined): inactive: > 76.9 µM. On to `CCOC(=O)c1ccccc1N/C=C1\CCCC1=O`, for which the Potency is inactive: > 76.9 µM. Take `COc1ccc(-n2c(SCCC(=O)O)nnc2-c2ccncc2)cc1`: the Potency is inactive: > 76.9 µM.

Regarding `CCOC(=O)c1nnn(-c2nonc2N)c1-c1ccc(OC)cc1`, the Potency entry was “inactive”.
